Assay results: ChEMBL document CHEMBL4888484, “Replenishing the malaria drug discovery pipeline: Screening and hit evaluation of the MMV Hit Generation Library 1 (HGL1) against asexual blood stage Plasmodium falciparum ,using a nano luciferase reporter read-out” (2022)
Among all 150,000 compounds or so, about 540 (0.36%) showed an effect of 50% or more. Some of the results follow.

tested on: Plasmodium falciparum; test: Primary screen in NF54 nanoGlo assay, in single point, at 2uM, 72h; a lower Z score goes with more inhibition; assay type: functional, Erythrocyte; conditions: timepoint 72 hour

Row | Structure (SMILES) | % Inhibition | Z score
1 | CN(Cc1ccccc1)S(=O)(=O)N1CCO[C@H](c2ccccc2)C1 | -15% | 1.5
2 | COc1ccc(NC(=O)Cn2cc(S(=O)(=O)N3CCCCC3)ccc2=O)cc1 | -5% | 1.02
3 | C1CCC2(C1)C[C@@H](Nc1nc(C3CC3)ns1)CCO2 | -16% | 2.44
4 | COc1ccccc1NC(=O)COc1ccc(S(=O)(=O)N2CCCCCC2)cc1 | -49% | 5.79
5 | COc1cc(CN(C)[C@H]2CCc3nn(C)c(=O)n3CC2)ccc1OCC(C)C | 10% | -1.74
6 | CCN(CCO)C(=O)NC1CCCC(C)C1C (configuration not stated) | -6% | 0.73
7 | CC(C)(C)n1ncn(Cc2csc(C3CC3)n2)c1=O | -9% | 0.92
8 | CNc1snc(C)c1C(=O)N(C)C[C@H](C)c1ccccc1 | -5% | 0.46
9 | O=C(c1ccco1)N1CCN(C(=O)c2nnn3c2CO[C@H](c2ccccc2)C3)CC1 | -13% | 1.17
10 | CN1C[C@H](NC(=O)Cc2ccccc2F)C[C@H]1CO | -12% | 2.26
11 | COc1ccc(C[C@](C)(O)CNC(=O)CCc2ccccc2Br)cc1 | -13% | 2.23
12 | CCCn1c(=O)cc(C)c2ccc(OCC(=O)N3CCOCC3)cc21 | -3% | 0.49
13 | CCOC(=O)[C@@H]1C(=O)Nc2cc(OC)ccc21 | 35% | -4.46
14 | c1ccc(C2=NN(c3ccccc3)C3(c4ccccc4)CCC3N2)cc1 (configuration not stated) | -10% | 1.19
15 | CO[C@H]1C[C@H]2CC(NCc3ccsc3)C[C@H]2C1 (some centres not stated) | -10% | 1.33
16 | Cc1ccnn1CC(=O)N1COCC1(C)C | -10% | 0.99
17 | CCCNC(=O)c1cc(-c2ccccc2)cn1C | -1% | 0.18
18 | Cc1ccc(C(=O)NCc2ccccc2CN2CCOCC2)cc1N(C)S(C)(=O)=O | 12% | -1.4
19 | CN(Cc1cnccn1)C(=O)COCc1nc2ccccc2[nH]1 | 0% | 0.01

Row | Structure (SMILES) | % Inhibition | Z score
20 | CCc1nc(C)ncc1C(=O)NCc1nc(C(F)(F)F)cs1 | -4% | 0.45
21 | Cc1nn(-c2ccc3nncn3n2)c2c1[C@@H](c1ccc(O)c(Cl)c1)CC(O)=N2 | -11% | 1.27
22 | CCCOC[C@H]1CCN(C(=O)c2cnc(OC)nc2)C1 | -12% | 2.03
23 | CCNC(=O)N1CCCCC[C@@H]1CN1CCOCC1 | -3% | 0.46
24 | CC(=O)Nc1cccnc1C(=O)NC[C@H](O)C1CCCCC1 | -1% | 0.22
25 | Cc1cccc(S(=O)(=O)CC(=O)N[C@H](c2ccccc2)C2CC2)c1 | -2% | 0.26
26 | Nc1nc(COC(=O)c2c(F)cccc2Cl)nc(Nc2ccccc2)n1 | -13% | 1.53
27 | CCCOc1ccc(CN(CCC)C(=O)c2ccc3c(=O)n4c(nc3c2)CCCCC4)cc1OC | -2% | 0.19
28 | Fc1cc(Cn2ccnc2)cc(-c2cnn(C[C@H]3CCOC3)c2)c1 | -13% | 2.09
29 | Cn1nc(C(=O)Nc2nc3ccccc3[nH]2)ccc1=O | -16% | 2.86
30 | CC(C)c1n[nH]c2c1CN(CCCS(=O)(=O)N(C)C)CC2 | 7% | -0.97
31 | CCOc1ccccc1C(=O)NCc1cncc(N2CCCC2=O)c1 | -21% | 3.86
32 | Cc1ccccc1CNC(=O)CC(C)C | -13% | 1.69
33 | O=C(c1ccccc1)N1C[C@H](c2nnc(-c3ccncc3)o2)C2(CCOCC2)C1 | -2% | 0.44
34 | Cc1cc(C(=O)NC2CCN(C3CC3)CC2)c(Cl)cc1F | -9% | 1.53
35 | Cc1ncoc1C(=O)N1CCN[C@H](c2ccccc2)C1 | -8% | 1.4
36 | Cc1nc(CC(=O)NC[C@H](O)COc2ccc(F)cc2)cs1 | -3% | 0.65
37 | CCOc1ccc(CN2CC(c3nc(C)no3)C2)cc1 | -11% | 2
38 | CCn1nnc2cc(C(=O)N3CCC(C(=O)NC4CCCC4)CC3)ccc21 | -10% | 1.93

Row | Structure (SMILES) | % Inhibition | Z score
39 | COCCN1C[C@@H](CNc2nccc(-c3c(C)nn(C)c3C)n2)CC1=O | -1% | 0.25
40 | COc1ccc(-c2cnnc(NCC[C@H]3CCCCO3)n2)c(OC)c1 | -13% | 1.73
41 | CC1CCc2c(cc(-c3ccccc3)n2-c2ccc(C(=O)NC3CCCCC3C)cc2)C1 (configuration not stated) | -5% | 0.95
42 | CCN1CCc2cc(OC)c(OC)cc2C1C(NS(=O)(=O)c1ccccc1)C(C)C (configuration not stated) | 0% | 0.02
43 | C#CCOCCC(=O)Nc1n[nH]c2c(Cl)cccc12 | 0% | 0.04
44 | CC(C)(CN1CCCCCC1)NC(=O)CCC(F)(F)F | -13% | 1.67
45 | Cc1nc(-c2ccc(C)c3ncccc23)n(C)n1 | -17% | 1.76
46 | CCOC(=O)c1csc([C@@H]2CCCN2C(=O)Nc2ccon2)n1 | -17% | 2.08
47 | O=C(Nc1ncnn1-c1ccccc1)[C@H]1CCCC(F)(F)C1 | 0% | 0.07
48 | COC[C@@H](O)CNC(C)c1cc(C)oc1C (some centres not stated) | -6% | 0.71
49 | Cc1cc2occ(CC(=O)Nc3nc(-c4ccc(C5CCCCC5)cc4)cs3)c2cc1C(C)C | -11% | 1.87
50 | O=C(N[C@H]1CC(=O)N(c2ccc3c(c2)OCCO3)C1)c1ccc(S(=O)(=O)N2CCOCC2)cc1 | -6% | 1.09
51 | Cc1cccc(C(=O)NCCc2cncn2C)c1Cl | -8% | 0.82
52 | CCCc1nn2c(c1-c1ccc(C)c(S(=O)(=O)NCCOC)c1)NC(=O)CCC2=O | -1% | 0.07
53 | Cc1nn(C)c2nc(N(C)Cc3ccccn3)sc12 | 11% | -1.35
54 | CCOCc1c(C(=O)N2CCCN(C(C)=O)CC2)oc2ccccc12 | -1% | 0.14
55 | COC(=O)c1nc(N)n(C(=O)c2ccccc2)n1 | -10% | 0.83
56 | O=C(Nc1cccc(-c2cn[nH]c2)c1)c1cnns1 | -6% | 1.16
